Results as given in article PMC4336329 (PLoS ONE, 2015).
Among all 310,000 compounds or so, about 2,200 (0.71%) showed an effect of 50% or more. Effects have a minus sign here. This is one part of the list.

Biological target: human ether-à-go-go-related gene (hERG) potassium channel (human, UniProt Q12809)
Experiment: primary screen, population patch clamp on CHO cells stably expressing hERG

human ether-à-go-go-related gene (hERG) potassium channel, sequence (Q12809 whole entry, looked up): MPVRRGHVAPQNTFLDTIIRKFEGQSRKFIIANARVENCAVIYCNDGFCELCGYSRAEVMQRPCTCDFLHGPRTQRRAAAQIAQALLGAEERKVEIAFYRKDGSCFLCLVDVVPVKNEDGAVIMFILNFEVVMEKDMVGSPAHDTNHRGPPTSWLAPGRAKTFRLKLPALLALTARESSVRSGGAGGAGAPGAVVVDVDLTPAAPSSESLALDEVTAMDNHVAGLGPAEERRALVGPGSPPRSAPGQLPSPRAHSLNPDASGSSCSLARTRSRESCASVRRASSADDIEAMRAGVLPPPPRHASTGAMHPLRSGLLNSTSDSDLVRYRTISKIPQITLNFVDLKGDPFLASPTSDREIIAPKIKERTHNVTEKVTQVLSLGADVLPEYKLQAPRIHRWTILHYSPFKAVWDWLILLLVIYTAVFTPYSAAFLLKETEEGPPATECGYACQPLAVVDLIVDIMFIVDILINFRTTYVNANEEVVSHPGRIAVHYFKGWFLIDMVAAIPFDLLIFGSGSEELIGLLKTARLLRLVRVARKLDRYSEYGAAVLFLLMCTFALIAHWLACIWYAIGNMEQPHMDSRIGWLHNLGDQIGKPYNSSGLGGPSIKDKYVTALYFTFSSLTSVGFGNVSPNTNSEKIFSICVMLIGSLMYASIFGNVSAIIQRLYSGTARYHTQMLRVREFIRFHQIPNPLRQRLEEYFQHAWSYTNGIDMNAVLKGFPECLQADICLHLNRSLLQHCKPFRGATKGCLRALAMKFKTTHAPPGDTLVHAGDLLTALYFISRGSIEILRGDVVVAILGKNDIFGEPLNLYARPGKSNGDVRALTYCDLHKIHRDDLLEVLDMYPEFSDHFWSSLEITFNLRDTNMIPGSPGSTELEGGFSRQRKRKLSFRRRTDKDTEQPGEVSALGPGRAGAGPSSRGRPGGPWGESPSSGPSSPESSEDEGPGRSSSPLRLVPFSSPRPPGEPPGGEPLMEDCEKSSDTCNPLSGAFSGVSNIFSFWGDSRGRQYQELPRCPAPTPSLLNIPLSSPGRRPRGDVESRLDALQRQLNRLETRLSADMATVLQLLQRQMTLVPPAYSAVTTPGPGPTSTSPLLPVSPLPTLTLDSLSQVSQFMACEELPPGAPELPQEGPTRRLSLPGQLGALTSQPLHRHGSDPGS

Structure (SMILES) | hERG current change (%, negative = inhibition) at 1uM [%]
O=C(COc1ccc(F)cc1Br)NCc1ccccn1 | 2.26
COc1cccc(OC)c1C(=O)NC(=S)NCc1ccccc1 | 15.4
O=C(Nc1cccc(S(=O)(=O)NC2=NCCC2)c1)c1ccc(=O)[nH]c1 | 11.4
Cc1ccc(C(=O)N/C(=C\c2ccco2)C(=O)NCCc2c[nH]c3ccccc23)cc1 | -12.2
CC(C)Oc1ccccc1OCCCOc1cccc2cccnc12 | 4.95
CC(=O)Nc1cccc(NC(=O)CSc2nccn2Cc2ccccc2)c1 | 14.4
COc1ccc(CN2CCC(n3nccc3NC(=O)C3CC3)CC2)cc1O | -18.7
O=S(=O)(NCCSc1ccccc1)c1cccs1 | 0.375
COc1ccc(C(NC(=O)CC(C)C)NC(=O)CC(C)C)cc1OC | -0.242
C=CCCC(=O)NC1CCCc2c1cnn2-c1ccccc1F (centres unmarked) | 18.1
O=C(O)c1cccc(S(=O)(=O)NCc2cccs2)c1 | 2.21
COC1=C(Nc2ccccc2OC)C(=O)c2ccccc2C1=O | 13.4
O=C(Oc1ccc2ccccc2c1Cl)N1CCCCCC1 | 16.9
O=Cc1ccnc(-c2ccc(OC(=O)c3ccco3)cc2)n1 | 5.69
COc1ccc(N(CC(=O)Nc2ccc(Cl)cc2)S(=O)(=O)c2c(C)n[nH]c2C)cc1 | 6.63
O=C(O)CCNS(=O)(=O)c1ccccc1C(F)(F)F | 14
CCOC(=O)N(NC(=O)C(O)(CC(C)C)CC(C)C)c1ccccc1 | 6.37
O=C(Cn1c(=O)oc2ccccc21)Nc1ccc(F)cc1 | 15.5
Cc1cccc(C(=O)N[C@H](C(=O)Nc2ccc(C)c(S(=O)(=O)N(C)C)c2)C(C)C)c1 | 21.2
COc1ccc(/C=N\NC(=S)SCN2C(=O)C3CCC(C)(C2=O)C3(C)C)cc1 (centres unmarked) | 16.6
O=C(Nc1cccc(-c2csc(Nc3cccc(C(F)(F)F)c3)n2)c1)c1ccccc1 | -4.15
COc1ccc(C(=O)Cn2nnc(-c3cccs3)n2)cc1 | 3.41

Structure (SMILES) | hERG current change (%, negative = inhibition) at 1uM [%]
CC(C)CCn1nnnc1C(c1ccc(N(C)C)cc1)N1CCN(C(=O)c2ccco2)CC1 (centres unmarked) | -3.51
CN(CC#CCN1CCCC1)C(=O)c1cccc(Cl)c1 | 7.28
O=C(c1cc(-c2ccccc2Cl)nc2ccccc12)N1CCC1 | 9.92
S=c1[nH]nc(Cc2c[nH]c3ccccc23)o1 | 0.407
COc1ccc(S(=O)(=O)Nc2nc3ccccc3s2)cc1 | 11.6
CCN(CC)CCNc1ncnc2c1sc1nc(N3CCOCC3)c3c(c12)CC(C)(C)SC3 | -17.5
CC(=O)Nc1ccc(S(=O)(=O)N2CCN(Cc3nc4sc(C)c(C)c4c(=O)[nH]3)CC2)cc1 | 10.1
Cc1[nH]nc2c1C(CCc1ccccc1)C(C#N)=C(N)O2 (centres unmarked) | -1.73
Cc1ccc(C(=O)N/N=C2\SCC(=O)N2c2cc(C)ccc2C)cc1 | 7.94
CCOc1ccc(-c2noc(CCC(=O)NC3CCCC3)n2)cc1OC | 12.8
COc1ccc(P(=O)(COc2ccc([N+](=O)[O-])cc2)c2ccc(OC)cc2)cc1 | -30.8
O=C(/C=C/Nc1ccc(F)cc1)c1ccc(Br)cc1 | 11
O=C(Nc1cccc(C(=O)N2CCOCC2)c1)c1ccccc1Br | 13.2
CC(C)Oc1ccc(C(=O)N2CCN(C(=O)c3ccco3)CC2)cc1 | 5.43
Cc1cc(C)c(C#N)c(N2CCOCC2)n1 | 11.5
O=C(NS(=O)(=O)Oc1ccc(F)c(Cl)c1)OC[C@@H]1CCCN2CCCCC12 (some centres unmarked) | 9.28
CS(=O)(=O)N(CC(=O)N1CCN(Cc2ccc3c(c2)OCO3)CC1)c1ccc2c(c1)OCO2 | -28
CCc1nnc(NS(=O)(=O)c2ccc(N=CC3=C(O)CC(C)(C)CC3=O)cc2)s1 | 19.9
COc1ccc(NC(=O)CSc2n[nH]c(-c3ccccn3)n2)cc1 | 13
O=C(N/N=C/c1ccccn1)c1ccncc1 | 14.2
O=C(CCN1C(=O)/C(=C/c2ccccc2Cl)SC1=S)NC1CCCC1 | 8.37
Cc1cc(/C=C2\C(=O)NC(=O)N(c3ccc(Cl)cc3)C2=O)c(C)n1C | 17.3
